Laboratory results as given in PubChem BioAssay AID588855 (National Center for Advancing Translational Sciences (NCATS), 2011).
Where “and” joins values, the source holds several entries; their conditions need not be identical. Identical values can stand only once. Out of some 410,000 compounds screened, about 5,000 (1.2%) were called active. This list was built around the results that the source calls inconclusive (neither active nor inactive); the mix of calls is not that of the screen. Calls come from the whole dose curve; as a rule, active = well fitted inhibition curve with a large enough effect; inconclusive = small, poorly fitted or top-dose-only effect; inactive = no such curve, though single readings can be large or run the other way. Potencies beside an inconclusive call are fits to weak or partial responses and may not hold up.

Test: qHTS for Inhibitors of TGF-b; note: nearly all actives have a fitted effect of over 65% in size
Conditions: HepG2 CAGA-GFP TGF-b/SMAD3 reporter, GFP fluorescence, 18 h, TGF-beta stimulated, 500 pg/mL final; series mostly up to 46.1 µM; activity, negative = inhibition: at the top concentration
Summary of the method: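 TGF-beta reporter screen: HEPG2 CAGA-GFP, 1% FBS, 500 pg/mL TGF-beta final, 18 h; per-cell GFP summed per well; curves fitted and categorized by class.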
% is set by controls: 0 for no effect and ±100 for the full control effect; potency is the fitted concentration of half-maximal effect; tags give direction and shape of the fitted curve.

**Q.** Which “activity, negative = inhibition” value does the source give for CO/N=C/C(C#N)=C/c1cc(C(=O)c2ccccc2)cn1C here?
**A.** inactive: 2.18%

**Q.** For Cc1ccc(SC[C@H](C)CN2CC[C@H](C)CCC2=O)cc1, which Potency is on record?
**A.** inactive

**Q.** For COC(=O)c1ccc(Oc2nc(Nc3ccc(C)c(C)c3)nc(N(C)C)n2)cc1, which Potency is on record?
**A.** inconclusive: 8.91 µM [inhibitor, partial curve, poor fit]

**Q.** Which “activity, negative = inhibition” value does the source give for Cc1sc2nc(C(C)C)nc(SCC(=O)NC3CC3)c2c1C here?
**A.** inactive: -13.3%

**Q.** With O=C(Cn1c(=O)n(-c2ccc(F)cc2)c(=O)c2sc3ccccc3c21)NC1CCCC1 as the compound, how does the Potency read?
**A.** inconclusive: 2.51 µM [inhibitor, partial curve]

**Q.** With O=C(O)CC1(CC(=O)NCc2ccncc2)CCCCC1 as the compound, how does the Potency read?
**A.** inconclusive: 25.1 µM [inhibitor, single point]

**Q.** With Cc1occc1C(=O)Nc1cccnc1 as the compound, how does the “activity, negative = inhibition” value read?
**A.** inactive: 7.75%

**Q.** Which “activity, negative = inhibition” value does the source give for CCc1ccc2oc(C(=O)Nc3ccccc3OC)cc(=O)c2c1 here?
**A.** inactive: -4.69%

**Q.** Which Potency does the source give for CCc1c(C)sc2c1CCN(Cc1cccc(OC)c1)C2c1ccccc1 (centres undefined) here?
**A.** inconclusive: 35.5 µM [inhibitor, single point]

**Q.** For CCc1ccc(C(=O)CC2(O)C(=O)N(CCc3ccccc3)c3ccc(Br)cc32)cc1 (centres undefined), which Potency is on record?
**A.** inconclusive: 35.5 µM [inhibitor, single point]

**Q.** With CCCCN(CCCC)CCNC(=O)Cn1nc(CC)n2c(cc3sccc32)c1=O as the compound, how does the Potency read?
**A.** inconclusive: 35.5 µM [inhibitor, single point]

**Q.** Which Potency does the source give for Cn1nc(C(F)(F)F)c(C(=O)Nc2ccc(F)cc2F)c1Sc1cccc(C(F)(F)F)c1 here?
**A.** inconclusive: 35.5 µM [inhibitor, single point]

**Q.** For CCC1=Nc2cc(C(=O)NCCc3ccc(OC)c(OC)c3)ccc2Sc2ccccc21, which Potency is on record?
**A.** inconclusive: 35.5 µM [inhibitor, single point]

**Q.** For Cn1cnnc1Sc1ccc(C(=O)NCCC23CC4CC(CC(C4)C2)C3)cc1[N+](=O)[O-], which Potency is on record?
**A.** inconclusive: 35.5 µM [inhibitor, single point]

**Q.** Which Potency does the source give for Cn1nc(C(F)(F)F)c(-c2ccc(Br)cc2)c1NC(=O)c1ccco1 here?
**A.** inconclusive: 11.2 µM [inhibitor, partial curve]

**Q.** With COC(=O)c1ccc(Cl)cc1NC(=O)Nc1nnc(N(C)C2CCCCC2)s1 as the compound, how does the Potency read?
**A.** inconclusive: 7.08 µM [inhibitor, full curve, poor fit]

**Q.** Which Potency does the source give for COc1ccc(OC)c(-c2[nH]nc3c2C(c2ccco2)C(C#N)=C(N)O3)c1 (centres undefined) here?
**A.** inconclusive: 3.55 µM [inhibitor, single point]

**Q.** For CCc1ccccc1S(=O)(=O)Cc1ccc(C(=O)NCc2ccc(Cl)cc2)o1, which Potency is on record?
**A.** inconclusive: 14.1 µM [inhibitor, single point]

**Q.** For COCc1cc(C)nc(OCC(=O)N/N=C/c2ccco2)c1C#N, which Potency is on record?
**A.** inconclusive: 6.31 µM [inhibitor, single point]

**Q.** Which Potency does the source give for CC1=Nc2ccccc2/C1=C/c1ccc(N(C)C)cc1 here?
**A.** inconclusive: 28.2 µM [inhibitor, single point]

**Q.** For Cc1cc(C(C)(C)C)oc1C(=O)N(CC(=O)NC1CCCC1)c1cccc(C(F)(F)F)c1, which Potency is on record?
**A.** inconclusive: 14.1 µM [inhibitor, partial curve, poor fit]

**Q.** For COc1ccc(-c2cn(CCc3c[nH]c4ccccc34)nn2)cc1, which Potency is on record?
**A.** inconclusive: 25.1 µM [inhibitor, single point] and inconclusive: 20 µM [inhibitor, partial curve, poor fit]

**Q.** With COc1cc(/C=C/C(=O)OCC(=O)NCc2ccco2)ccc1OCC#N as the compound, how does the Potency read?
**A.** inconclusive: 3.16 µM [inhibitor, single point]

**Q.** With O=C(Nc1cc(S(=O)(=O)N2CCOCC2)ccc1N1CCOCC1)c1ccc([N+](=O)[O-])s1 as the compound, how does the Potency read?
**A.** inconclusive: 5.62 µM [inhibitor, single point]

**Q.** Which “activity, negative = inhibition” value does the source give for O=C(CS(=O)(=O)c1ccc(F)cc1)NCc1ccccc1 here?
**A.** inactive: 8.96%

**Q.** Which Potency does the source give for Cc1nc2c(OCc3ccc(C(F)(F)F)cc3)cccn2c1N(C)Cc1cccs1 here?
**A.** inconclusive: 31.6 µM [inhibitor, single point]

**Q.** Which Potency does the source give for N#CCCn1cc(/C=N/NC(N)=S)c(-c2ccc(-c3ccccc3)cc2)n1 here?
**A.** inconclusive: 3.16 µM [inhibitor, full curve, poor fit]

**Q.** For CC(C)c1ccc(NC(=S)Nc2ccc(OC(F)(F)F)cc2)cc1, which “activity, negative = inhibition” value is on record?
**A.** inactive: -16.4%

**Q.** For OCc1cn(-c2ccccc2)nc1-c1cc2ccccc2o1, which Potency is on record?
**A.** inconclusive: 10 µM [inhibitor, partial curve]

**Q.** For COc1ccccc1C(=O)Nc1ccccc1SC(=O)c1ccccc1OC, which Potency is on record?
**A.** inconclusive: 35.5 µM [inhibitor, single point]

**Q.** Which “activity, negative = inhibition” value does the source give for CC(C(=O)O)n1c2ccccc2c2cnn(C)c(=O)c21 (centres undefined) here?
**A.** inactive: 5.76%

**Q.** Which “activity, negative = inhibition” value does the source give for Cc1ccc(C2C=C(c3ccc(Cl)cc3)Nc3nc(NC(=O)CCC(=O)O)nn32)cc1 (centres undefined) here?
**A.** inactive: 26.6%

**Q.** With COc1ccc(-n2nc(C(=O)NCC(=O)NCC3COc4ccccc4O3)c3ccccc3c2=O)cc1 (centres undefined) as the compound, how does the Potency read?
**A.** inconclusive: 28.2 µM [inhibitor, single point]

**Q.** For Cc1onc(-c2ccccc2Cl)c1C(=O)Nc1cccc(-c2cn3cccnc3n2)c1, which Potency is on record?
**A.** inconclusive: 1.41 µM [inhibitor, full curve]

**Q.** For O=C(NCCn1cc(SCc2ccc(C(F)(F)F)cc2)c2ccccc21)c1ccccc1F, which Potency is on record?
**A.** inconclusive: 11.2 µM [inhibitor, partial curve, poor fit]

**Q.** For C(/CCc1ccccc1)=N\Nc1nc2ccccc2[nH]1, which Potency is on record?
**A.** inconclusive: 35.5 µM [inhibitor, single point]

**Q.** For O=C1NC(=S)SC1=C1CCCCCC1, which Potency is on record?
**A.** inconclusive: 1.12 µM [inhibitor, full curve, poor fit]

**Q.** For O=C(NN=C1CCN(Cc2ccccc2)CC1)C(O)c1ccccc1 (centres undefined), which Potency is on record?
**A.** inconclusive: 0.562 µM [inhibitor, full curve]

**Q.** Which Potency does the source give for COc1ccc(C(=O)Nc2ccc3nc(N4CCN(C)CC4)cc(C)c3c2)c(OC)c1 here?
**A.** inconclusive: 35.5 µM [inhibitor, single point]

**Q.** Which Potency does the source give for O=C(NCc1ccc(F)cc1)c1ccc2c(c1)N(Cc1ccc(F)cc1Cl)C(=O)CS2 here?
**A.** inconclusive: 6.31 µM [inhibitor, single point]

**Q.** With CN1/C(=C\C(=O)COC(=O)C2COc3ccccc3O2)C(C)(C)c2ccccc21 (centres undefined) as the compound, how does the “activity, negative = inhibition” value read?
**A.** inactive: -12.8%

**Q.** With Cc1cc(N2CCN(c3ccccc3F)CC2)n2cnnc2n1 as the compound, how does the Potency read?
**A.** inconclusive: 35.5 µM [inhibitor, single point]

**Q.** Which Potency does the source give for CCOC(=O)C1=C(N)Oc2cc(O)ccc2C1c1ccc(Br)cc1 (centres undefined) here?
**A.** inconclusive: 22.4 µM [inhibitor, single point]

**Q.** Which Potency does the source give for Cc1ccccc1/C=c1\s/c(=C\C(=O)C(C)(C)C)[nH]c1=O here?
**A.** inconclusive: 35.5 µM [inhibitor, single point]

**Q.** With Oc1ccc2cc(Br)ccc2c1CN1CCCC1 as the compound, how does the Potency read?
**A.** inconclusive: 35.5 µM [inhibitor, single point]

**Q.** With CCOC(=O)C1(CC2CC2)CCN(S(=O)(=O)/C=C/c2ccccc2)CC1 as the compound, how does the Potency read?
**A.** inconclusive: 25.1 µM [inhibitor, single point]

**Q.** Which Potency does the source give for COc1cc(C(=O)Oc2ccccc2/C=N/NC(=O)c2ccc(C)cc2)cc(OC)c1OC here?
**A.** active: 12.6 µM

**Q.** For Cc1ccccc1-c1nc2cc(Cl)ccc2c(=O)o1, which “activity, negative = inhibition” value is on record?
**A.** inactive: 8.79%

**Q.** Which Potency does the source give for CC(=O)c1ccc(NC(=O)C(Cc2ccccc2)NS(=O)(=O)c2ccc3c(c2)CCC(=O)N3)cc1 (centres undefined) here?
**A.** inconclusive: 7.08 µM [inhibitor, full curve, poor fit]

**Q.** With CC(C)N(C(=O)COC(=O)[C@H](C)NC(N)=O)c1ccccc1 as the compound, how does the “activity, negative = inhibition” value read?
**A.** inactive: 1.31%

**Q.** Which Potency does the source give for CCCCC1CC2=C(C(=O)OC(C)(C)O2)C(c2ccc(F)cc2)O1 (centres undefined) here?
**A.** inconclusive: 3.55 µM [inhibitor, full curve]

**Q.** For Cc1ccc(S(=O)(=O)N2CCN(C(=O)COC(=O)c3cc(C)oc3C)CC2)cc1, which “activity, negative = inhibition” value is on record?
**A.** inactive: -1.06%

**Q.** For CCOC(=O)c1ccc(NC(=O)Nc2ccon2)cc1, which Potency is on record?
**A.** inconclusive: 3.98 µM [inhibitor, full curve, poor fit]

**Q.** For Cc1cccc(N=N/C(=C\O)C(=O)c2cccs2)c1, which Potency is on record?
**A.** inconclusive: 20 µM [inhibitor, single point]

**Q.** With CN(C)CCCN1c2ccccc2Sc2ccc(Cl)cc21 as the compound, how does the Potency read?
**A.** inconclusive: 35.5 µM [inhibitor, single point] and inconclusive: 15.8 µM [inhibitor, single point]

**Q.** With CC1(C)CC(=O)C2=C(C1)OC(N)=C(C#N)C2c1cn(-c2ccccc2)nc1-c1ccc(F)cc1 (centres undefined) as the compound, how does the Potency read?
**A.** inconclusive: 35.5 µM [inhibitor, single point]

**Q.** With COc1ccc(Cl)cc1NC(=O)Nc1ccc(C(=O)N2CCOCC2)cc1 as the compound, how does the Potency read?
**A.** inconclusive: 1.41 µM [inhibitor, partial curve, poor fit]

**Q.** For CN(C)c1ccc(C=NNC(=O)c2cccnc2)cc1, which Potency is on record?
**A.** inconclusive: 6.31 µM [inhibitor, single point]

**Q.** With C[C@H]1CN([C@@H](C)CO)S(=O)(=O)c2ccc(Br)cc2O[C@@H]1CN(C)Cc1ccccc1 as the compound, how does the Potency read?
**A.** inconclusive: 35.5 µM [inhibitor, single point]

**Q.** With CCC(=O)N1CCc2cc(S(=O)(=O)NCCC(=O)NC(C)c3ccccc3)ccc21 (centres undefined) as the compound, how does the “activity, negative = inhibition” value read?
**A.** inactive: -12.6%

**Q.** Which “activity, negative = inhibition” value does the source give for Nc1nonc1-n1nnc(C(=O)N/N=C/c2cccc(Cl)c2Cl)c1CN1CCCC1 here?
**A.** inactive: 0.677%

**Q.** Which Potency does the source give for O=C(NC1CCCC1)C(c1ccsc1)N(Cc1ccccc1)C(=O)Cc1cccs1 (centres undefined) here?
**A.** inconclusive: 11.2 µM [inhibitor, partial curve, poor fit]

**Q.** With C[C@H]1CN([C@@H](C)CO)C(=O)c2cccc(NC(=O)Nc3ccc(C(F)(F)F)cc3)c2O[C@@H]1CN(C)Cc1ccc(Cl)c(Cl)c1 as the compound, how does the Potency read?
**A.** inconclusive: 11.2 µM [inhibitor, partial curve, poor fit]

**Q.** With O=C(C1CCN(S(=O)(=O)c2cccc3nonc23)CC1)N1CCN(c2ccc(F)cc2)CC1 as the compound, how does the Potency read?
**A.** inconclusive: 11.2 µM [inhibitor, single point]
